From the supplement of paper PMC9334596
Where “and” joins values, the source holds several entries; their conditions need not be identical. Equal entries are not always repeated. In all, about 5,300 compounds were measured (“PER2::LUC luminescence relative to vehicle control”: median about 0.96, highest 2% from about 1.3 on). Some of the results follow.

System: mPer2Luc MEF
Assay: PER2::LUC luminescence relative to vehicle control (fold of vehicle); higher = higher PER2::LUC reporter signal
Conditions: 10 µM
Summary of the method: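 Compounds from commercial libraries were added at 10 μM to 384-well plates seeded 48 h earlier with ~3000 mPer2Luc mouse embryonic fibroblasts per well. The cells were kept in DMEM with 10% FBS at 37 °C and 5% CO2. Luminescence was read with ONE-Glo 24 h and 30 h after treatment, then an alamarBlue viability assay was run. Values are PER2::LUC luminescence relative to vehicle control, as fold change.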

Structure (SMILES) | PER2::LUC luminescence (time after treatment 24 h) | PER2::LUC luminescence (time after treatment 30 h)
CN(C)CCN1C(=O)c2cccc3cc(NC(N)=O)cc(c23)C1=O | 0.999 | 0.806
NC(N)=NC(N)=Nc1cccc(Cl)c1 | 0.938 and 1.03 | 1.18 and 0.872
COc1cc([S+](C)[O-])ccc1-c1nc2cccnc2[nH]1 (centres undefined) | 1 | 0.947
CC(C)=CCC[C@@H](C)[C@H]1CC[C@@]2(C)C3=C(CC[C@]12C)[C@@]1(C)CC[C@H](O)C(C)(C)[C@@H]1CC3 | 1.06 | 0.995
CC(=O)OC1CCC2(C)C(=CCC3C2CCC2(C)C(C(C)CCCC(C)C)CCC32)C1 (centres undefined) | 1.04 | 0.938
C[C@H](CCC(=O)O)[C@H]1CC[C@H]2[C@@H]3[C@H](O)C[C@@H]4C[C@H](O)CC[C@]4(C)[C@H]3C[C@H](O)[C@]12C | 0.994 | 0.981
O=c1ccc2cc(O)c(O)cc2o1 | 0.867 | 0.732
OB1OCc2cc(F)ccc21 | 1.04 | 1.01
Cc1c(OCC(F)(F)F)ccnc1C[S@@+]([O-])c1nc2ccccc2[nH]1 | 1.68 and 1.14 | 1.73 and 1.12
COc1cc2c(N3CCN(C(=O)Nc4ccc(OC(C)C)cc4)CC3)ncnc2cc1OCCCN1CCCCC1 | 0.772 | 0.597
Cc1cc(O)c2c(c1)C(=O)c1cccc(O)c1C2=O | 0.954 | 0.968
NC(=O)c1cn(Cc2c(F)cccc2F)nn1 | 1.07 | 1.14
COc1cc(N)c(Cl)cc1C(=O)OCCCN1CCCCC1 | 0.953 | 0.845
CC(C(=O)O)c1ccc(-c2ccccc2)c(F)c1 (centres undefined) | 1.15 | 1.06
O=C(OCC(O)CO)c1ccccc1Nc1ccnc2cc(Cl)ccc12 (centres undefined) | 0.955 | 1.09
CN(CCO)CC(O)Cn1cnc2c1c(=O)n(C)c(=O)n2C (centres undefined) | 0.994 | 1.06
C#Cc1cccc(Nc2ncnc3cc(OCCOC)c(OCCOC)cc23)c1 | 0.831 and 0.801 | 0.869 and 0.721
COc1ccc(Cn2ccc3ccc(C(=O)NO)cc32)cc1 | 0.933 | 0.784
Cc1onc(-c2ccccc2Cl)c1C(=O)N[C@@H]1C(=O)N2[C@@H]1SC(C)(C)[C@@H]2C(=O)O | 0.905 and 0.888 | 1.04 and 0.952
CC(C)Nc1cccnc1N1CCN(C(=O)c2cc3cc(NS(C)(=O)=O)ccc3[nH]2)CC1 | 1.07 | 0.996
Cn1c(=O)c2[nH]c(-c3ccccc3)nc2n(C)c1=O | 0.821 | 1.03

Structure (SMILES) | PER2::LUC luminescence (time after treatment 24 h) | PER2::LUC luminescence (time after treatment 30 h)
COC(=O)C1=CO[C@@H](O[C@@H]2O[C@H](CO)[C@@H](O)[C@H](O)[C@H]2O)[C@@H]2C(CO)=CC[C@H]12 | 0.952 | 0.958
CN1C(=O)C(c2c[nH]c3ccccc23)=C(c2c[nH]c3ccccc23)C1=O | 0.981 | 1.01
CN[C@@H]1[C@H](O)[C@H](NC)[C@H]2O[C@@]3(O)C(=O)C[C@@H](C)O[C@H]3O[C@@H]2[C@H]1O | 1.13 and 0.92 | 1.01 and 0.918 and 1.03
CCNCCNC(=O)c1c(C)[nH]c(/C=C2\C(=O)Nc3ccc(F)cc32)c1C | 0.42 | 0.619
NS(=O)(=O)c1cc2c(cc1Cl)NC(C(Cl)Cl)NS2(=O)=O (centres undefined) | 0.947 | 0.802
O.O=[Si]=O.O=[Si]=O.O=[Si]=O.O=[Si]=O.[O]=[Mg].[O]=[Mg].[O]=[Mg] | 1.12 | 1.08
O=C1C[C@@H](c2ccc(O)c(O)c2)Oc2cc(O)cc(O)c21 | 0.983 | 1.05
CN[C@H](CC(=O)O)C(=O)O | 0.92 | 0.642
NC(=O)c1cnc(N[C@@H]2CCCC[C@@H]2N)nc1Nc1cccc(-n2nccn2)c1 | 0.327 | 0.408
CC(C)Cc1ccc([C@@H](C)C(=O)O)cc1 | 0.974 | 0.981
Cc1c(-c2ccccc2)oc2c(C(=O)OCCN3CCCCC3)cccc2c1=O | 1.09 | 1.03
CC(=O)Oc1cc(OC(C)=O)c2c(c1)O[C@H](c1ccc(OC(C)=O)c(OC(C)=O)c1)[C@@H](OC(C)=O)C2 | 0.814 | 0.933
COc1ccc(O)cc1 | 1.08 and 0.874 | 0.907 and 1.09
CC(=O)NC(Cc1ccccc1)C(=O)O (centres undefined) | 0.847 | 0.873
CC(C)C[C@@H](C(=O)N[C@H](C(=O)OC1CCCC1)c1ccccc1)[C@H](O)C(=O)NO | 0.793 | 0.701
CCCCCCCCCCCCCCCCCCCCCCO | 0.715 and 1.06 | 0.898 and 1.09
NCCCC(=O)O | 0.993 and 1.03 | 0.963 and 1.15
CCCCCCOC(=O)NC(=N)c1ccc(NCc2nc3cc(C(=O)N(CCC(=O)OCC)c4ccccn4)ccc3n2C)cc1 | 1.06 and 0.917 and 0.635 | 0.988 and 0.952 and 1.12
O=C(OC1C[C@@H]2CC3C[C@H](C1)N2CC3=O)c1c[nH]c2ccccc12 (some centres undefined) | 0.963 | 0.93
CC(C)CCC[C@@H](C)[C@H]1CC[C@H]2[C@@H]3CC(=O)[C@H]4C[C@@H](O)CC[C@]4(C)[C@H]3CC[C@]12C | 1.01 | 0.915
Cc1cc(C)c(CNC(=O)c2cc(-c3ccc(CN4CCOCC4)cc3)cc3c2cnn3C2CCCC2)c(=O)[nH]1 | 1.09 | 1.08
